Common to all, as to assay: uncleaved DNA left, log2 of reads against the no-enzyme library (log2 ratio); higher = less cleavage (more negative = more Rep cleavage of the k-mer); sequences stand for … in CTCGTCCG…ACCGGAGA
Experiment [1] concerns T1, Rep nickase domain of Muscovy duck circovirus.
T1 sequence (residues 1-111 of Rep, tag left off): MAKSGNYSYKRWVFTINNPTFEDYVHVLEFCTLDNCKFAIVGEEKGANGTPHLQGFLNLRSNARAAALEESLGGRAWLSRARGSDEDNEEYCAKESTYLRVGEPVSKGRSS
Here is the method:
(§1)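 A pool of 90-nt single-stranded DNAs with seven random bases just before the constant AC of the nick site (name = the seven bases) was cut by 3 µM recombinant His6-SUMO-tagged Rep nickase domain (300 nM DNA, 50 mM HEPES pH 8.0, 50 mM NaCl, 1 mM MnCl2, 1 h, 37 °C, three replicates). Uncut DNA was amplified and sequenced.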

In experiment [2] the test system is T2, Rep nickase domain of banana bunchy top virus.
T2 sequence (residues 1-94 of Rep, tag left off): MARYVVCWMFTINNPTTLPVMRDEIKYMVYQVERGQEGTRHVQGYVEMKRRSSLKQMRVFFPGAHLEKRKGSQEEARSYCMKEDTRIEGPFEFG
Here is the method: as §1
The subject of experiment [3] is T3, Rep nickase domain of cabbage leaf curl virus.
T3 sequence (residues 1-116 of Rep, tag left off): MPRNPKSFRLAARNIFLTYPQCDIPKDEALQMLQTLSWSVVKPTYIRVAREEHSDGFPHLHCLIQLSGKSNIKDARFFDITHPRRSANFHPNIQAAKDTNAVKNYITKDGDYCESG
Here is the method: as §1
The subject of experiment [4] is T4, Rep nickase domain of chickpea chlorotic dwarf virus.
T4 sequence (residues 1-124 of Rep, tag left off): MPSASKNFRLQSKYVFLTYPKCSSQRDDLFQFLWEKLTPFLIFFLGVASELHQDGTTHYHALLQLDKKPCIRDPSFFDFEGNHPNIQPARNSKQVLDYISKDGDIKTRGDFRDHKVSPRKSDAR
Here is the method:
as §1

The test system of experiment [5] is T5, Rep nickase domain of faba bean necrotic yellows virus.
T5 sequence (residues 1-98 of Rep, tag left off): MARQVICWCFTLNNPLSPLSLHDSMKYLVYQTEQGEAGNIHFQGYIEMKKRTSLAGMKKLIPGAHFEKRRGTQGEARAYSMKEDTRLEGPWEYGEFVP
As for the experimental part:
as §1

For experiment [6], the system named is T6, Rep nickase domain of maize striate mosaic virus.
T6 sequence (residues 1-117 of Rep, tag left off): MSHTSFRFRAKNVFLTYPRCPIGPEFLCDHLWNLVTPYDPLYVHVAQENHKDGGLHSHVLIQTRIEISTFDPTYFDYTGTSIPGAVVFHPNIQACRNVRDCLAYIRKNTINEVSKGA
As for the experimental part: as §1
Experiment [7] relates to T7, Rep nickase domain of porcine circovirus 2.
T7 sequence (residues 2-116 of Rep, tag left off): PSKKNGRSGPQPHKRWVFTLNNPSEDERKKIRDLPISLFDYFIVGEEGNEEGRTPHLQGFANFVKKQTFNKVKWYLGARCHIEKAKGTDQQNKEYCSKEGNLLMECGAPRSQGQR
As for the experimental part:
as §1

The subject of experiment [8] is T8, Rep nickase domain of tomato yellow leaf curl virus.
T8 sequence (residues 1-136 of Rep, tag left off): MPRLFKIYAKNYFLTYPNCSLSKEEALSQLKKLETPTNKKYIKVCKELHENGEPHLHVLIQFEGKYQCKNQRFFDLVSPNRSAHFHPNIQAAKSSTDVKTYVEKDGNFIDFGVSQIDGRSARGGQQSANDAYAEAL
Here is the method: as §1
Experiment [9] deals with T9, Rep nickase domain of wheat dwarf virus.
T9 sequence (residues 1-137 of Rep, tag left off): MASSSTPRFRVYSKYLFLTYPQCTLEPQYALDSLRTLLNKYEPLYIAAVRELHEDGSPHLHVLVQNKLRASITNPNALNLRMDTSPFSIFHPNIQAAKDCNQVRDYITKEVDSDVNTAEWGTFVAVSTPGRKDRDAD
Here is the method: as §1

The list shows a part of the results. Cleavage of a single-stranded DNA pool by Rep nickase domains was read by sequencing at 3 µM enzyme and 37 °C for 1 h; the strands have 90 letters, of which the middle is given. Uncut reads are compared with the no-enzyme pool on a log2 scale; more negative means more cut, near 0 not cut, and no call is made. The scaling is to total reads; values above 0 arise when much of the pool is cut.

In the case of TAAGCGA, the “uncleaved DNA left (log2)” value in [1] is 0.0398; in experiment [2], -0.13; in experiment [3], -0.722; in [4], -0.539; in experiment [5], 0.0367; in experiment [6], -0.981. Moreover, the “uncleaved DNA left (log2)” value in experiment [7] was 0.112; in experiment [8] it was -0.00472; in experiment [9], -0.143.

Regarding CCAAACA, the “uncleaved DNA left (log2)” value in experiment [1] is -0.0992; in [2] it was -0.0586; in experiment [3], -0.186; in experiment [4] it was -2.2; in experiment [5], -0.0509; in experiment [6], -0.649. Moreover, the figures for the “uncleaved DNA left (log2)” value in experiment [7], in experiment [8] and in [9] were -0.103, -0.0812 and -0.114, respectively.

In the case of CTAGGGG, the “uncleaved DNA left (log2)” value was 0.039 in experiment [1]; -0.099 in [2]; 0.197 in experiment [3]; 0.613 in experiment [4]; -0.00448 in experiment [5]; 0.242 in experiment [6]. Also, the “uncleaved DNA left (log2)” value was 0.25 in experiment [7], -0.0191 in experiment [8] and 0.0604 in experiment [9].

As for ATAAATC, the “uncleaved DNA left (log2)” value in experiment [1] was 0.137; in experiment [2], 0.167; in experiment [3], 0.177; in experiment [4], -0.156; in experiment [5], 0.217; in experiment [6], -0.67. For the same sequence, the “uncleaved DNA left (log2)” value in [7] was found to be 0.153; in experiment [8], 0.139; in experiment [9], 0.104.

As to AGTACAT, the “uncleaved DNA left (log2)” value in experiment [1] amounted to 0.0499; in experiment [2], 0.137; in experiment [3], 0.723; in experiment [4] it was 1.5; in experiment [5], 0.0123; in [6], 1.8. The “uncleaved DNA left (log2)” value was -3.3 in [7], 0.075 in experiment [8] and 0.237 in [9].

Consider CCGTCTC, for which the “uncleaved DNA left (log2)” value in experiment [1] is -0.09; in experiment [2] it was -0.129; in experiment [3], -0.0209; in experiment [4], -0.26; in experiment [5], -0.0891; in experiment [6] it was 0.126. Also, the results for the “uncleaved DNA left (log2)” value in [7], in [8] and in [9] were -0.397, -0.124 and -0.288, respectively.

On to AGGGCAG, for which the “uncleaved DNA left (log2)” value is 0.00214 in experiment [1]; 0.0683 in experiment [2]; 0.377 in [3]; 1.31 in experiment [4]; -0.0975 in [5]; 1.17 in experiment [6]. Also, the entries for the “uncleaved DNA left (log2)” value in experiment [7], in experiment [8] and in [9] were 0.191, 0.0688 and 0.101, respectively.

Consider GGAATCT, for which the “uncleaved DNA left (log2)” value in experiment [1] turned out to be 0.131; in experiment [2] it was 0.131; in experiment [3] it was 0.474; in experiment [4], 1.08; in [5], 0.113; in [6] it was 1.94. The “uncleaved DNA left (log2)” value in [7] was 0.146; in experiment [8], 0.108; in experiment [9], 0.181.

As for TATAAGA, the “uncleaved DNA left (log2)” value is -0.0659 in [1]; -0.0317 in experiment [2]; -0.157 in experiment [3]; -0.622 in experiment [4]; -0.017 in experiment [5]; -1.07 in experiment [6]. Besides, the figures for the “uncleaved DNA left (log2)” value in experiment [7], in experiment [8] and in [9] were -0.0452, -0.0398 and -0.0515, respectively.

For the sequence CGGCGAC, the “uncleaved DNA left (log2)” value is -0.0088 in [1]; -0.0602 in [2]; 0.0747 in [3]; 0.587 in experiment [4]; 0.141 in [5]; 0.794 in [6]. In addition, the figures for the “uncleaved DNA left (log2)” value in [7], in [8] and in experiment [9] were 0.0838, -0.0641 and 0.0265, respectively.

For the sequence GGTGTCG, the “uncleaved DNA left (log2)” value in [1] was 0.0684; in experiment [2], -0.0835; in [3], -0.429; in experiment [4], 0.122; in experiment [5], 0.0161; in [6], -0.347. Also, the “uncleaved DNA left (log2)” value in experiment [7] was 0.153; in experiment [8] it was -0.163; in experiment [9] it was -0.0228.

For the sequence GACGAAG, the “uncleaved DNA left (log2)” value in [1] was -0.0435; in experiment [2] it was -0.101; in [3] it was -0.153; in experiment [4], -0.0465; in experiment [5], -0.00452; in experiment [6], -0.715. Besides, the “uncleaved DNA left (log2)” value is -0.0532 in experiment [7], -0.0833 in experiment [8] and -0.0703 in experiment [9].

On to GAGCGTA, for which the “uncleaved DNA left (log2)” value in [1] was -0.0469; in [2] it was -0.0568; in [3], -0.269; in experiment [4], -0.187; in experiment [5] it was 0.0592; in [6] it was -0.0191. The “uncleaved DNA left (log2)” value in experiment [7] is -0.531; in experiment [8], -0.117; in experiment [9], -0.0244.

As to GGAGCTC, the “uncleaved DNA left (log2)” value turned out to be 0.0764 in experiment [1]; 0.209 in [2]; 0.625 in [3]; 1.38 in [4]; 0.155 in [5]; 1.89 in experiment [6]. Further, the “uncleaved DNA left (log2)” value in experiment [7] was 0.121; in experiment [8], 0.151; in experiment [9], 0.107.

As to TACCGTT, the “uncleaved DNA left (log2)” value in experiment [1] is -0.0757; in experiment [2], -0.174; in experiment [3], -1.25; in experiment [4], -2.78; in experiment [5], -0.0614; in [6], -0.898. The “uncleaved DNA left (log2)” value in experiment [7] was -2.96; in [8], -0.085; in [9], -0.248.

The values above are taken from the supplement of paper PMC7826260.
